Data on 1 molecule can be found in PubChem BioAssay (NCI).

The experiment relates to NCI-H322M lung. The experiment in a line: growth of human tumour cells (NCI), 48 h.

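Where inhibition never reached the appropriate level, the endpoint shown equals the highest concentration tested. Otherwise, values were interpolated linearly from a five-concentration, 48-hour dose response in 96-well plates. GI50 = concentration required for 50% inhibition of growth. TGI denotes the concentration required for complete inhibition of growth.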

In the case of `CCOC(=O)C1=C(N)N(c2ccccc2)C2=C(C(=O)CC(C)(C)C2)C1c1ccc(Cl)cc1Cl` (configuration not stated), the GI50 is 77.1 µM and the TGI was more than 100 µM.
